From patent US20210275685A1 come the findings set out here.

The target in this experiment is His peptide-tagged soluble cynoADAM9 (cynomolgus monkey). As to the kind of experiment: ELISA (abs at 450 nm): His-tagged soluble cynoADAM9 (0.5 µg/mL) captured by plate-coated anti-His antibody, serial dilutions of antibody.

B1: hMAB-A (2I.2)(C) (antibody)
heavy: EVQLVESGGGLVKPGGSLRLSCAASGFTFSSYWMHWVRQAPGKGLEWVGEIIPIFGHTNYNEKFKSRFTISLDNSKNTLYLQMGSLRAEDTAVYYCARGGYYYYPRQGFLDYWGQGTTVTVSSASTKGPSVFPLAPSSKSTSGGTAALGCLVKDYFPEPVTVSWNSGALTSGVHTFPAVLQSSGLYSLSSVVTVPSSSLGTQTYICNVNHKPSNTKVDKRV[human IgG1 Fc with changes not given here]
light: DIVMTQSPDSLAVSLGERATISCKASQSVDYSGDSYMNWYQQKPGQPPKLLIYAASDLESGIPARFSGSGSGTDFTLTISSLEPEDFATYYCQQSHEDPFTFGQGTKLEIKRTVAAPSVFIFPPSDEQLKSGTASVVCLLNNFYPREAKVQWKVDNALQSGNSQESVTEQDSKDSTYSLSSTLTLSKADYEKHKVYACEVTHQGLSSPVTKSFNRGEC
Consider B1, for which the EC50 (read off the curve) was 9 ng/mL.
